Assay results from PubChem BioAssay AID330 (DTP/NCI, 2004).
Inconclusive results and toxic doses are left out. A number of entries come with more than one value. Only these are listed. There may be further records. Values that stand side by side repeat one measurement in other runs, samples, wells, individuals or studies.

Test system: P388 leukemia ip, CD2F1 mice, survival T/C
Assay: NCI In Vivo Anticancer Drug Screen. Data for tumor model P388 Leukemia (intraperitoneal) in CD2F1 (CDF1) mice
Details: endpoint: median survival time, higher = longer survival
[1] = dose: 6.25 mg/kg/injection, schedule: Q01DX009 (ip), vehicle: water

CCCCCN(C)/N=N/c1nc[nH]c1C(N)=O
T/C (dose: 400.0 mg/kg/injection, schedule: Q04DX003 (ip), vehicle: saline with Tween-80): 113 % of control and 150 % of control

O=C1C=C(N2CC2)c2ccccc2C1=O
T/C (dose: 12.5 mg/kg/injection, schedule: Q01DX009 (ip), vehicle: saline with Tween-80): 118 % of control and 172 % of control

COc1cc2c(c(OC)c1OC)-c1ccc(SC)c(=O)cc1[C@@H](NC(=O)Oc1ccccc1)CC2
T/C (dose: 10.0 mg/kg/injection, schedule: Q01DX009 (ip), vehicle: Klucel (hydroxypropylcellulose) (HPC)): 108 % of control and 161 % of control

C=COC(=O)N[C@H]1CCc2cc(OC)c(OC)c(OC)c2-c2ccc(SC)c(=O)cc21
T/C (dose: 3.0 mg/kg/injection, schedule: Q01DX009 (ip), vehicle: Klucel (hydroxypropylcellulose) (HPC)): 97 % of control and 152 % of control

COc1cccc2c1C(=O)c1c(O)c3c(c(O)c1C2=O)C[C@@](O)(/C(C)=N/NC(=O)c1ccccc1)C[C@@H]3OC1CC(N(C)C)C(O)C(C)O1 (stereo partly drawn)
T/C [1]: 108 % of control, 110 % of control, 166 % of control

CC(=O)OCN1C(=O)C2C3C=CC(C2C1=O)C1C2C(=O)N(COC(C)=O)C(=O)C2C31 (stereo not drawn)
T/C (dose: 100.0 mg/kg/injection, schedule: Q01DX009 (ip), vehicle: saline with Tween-80): 118 % of control and 155 % of control

CCOC(=O)C(N)CSC(c1ccccc1)(c1ccccc1)c1ccccc1 (stereo not drawn)
T/C (dose: 100.0 mg/kg/injection, schedule: Q01DX009 (ip), vehicle: water): 90 % of control and 196 % of control

[Na+]
T/C (dose: 1.56 % in 0.5 ml injection vol, schedule: Q01DX009 (ip), vehicle: water): 101 % of control and 171 % of control

COc1cccc2c1C(=O)c1c(O)c3c(c(O)c1C2=O)C[C@@](O)(C(=O)COC(=O)c1cccnc1)C[C@@H]3OC1CC(N)C(O)C(C)O1 (stereo partly drawn)
T/C (dose: 16.0 mg/kg/injection, schedule: Q04DX003 (ip), vehicle: saline): 92 % of control and 163 % of control

O=C(Nc1ccc(CCC2=NCCCN2)cc1)c1ccc(C(=O)Nc2ccc(CCC3=NCCCN3)cc2)cc1
T/C (dose: 200.0 mg/kg/injection, schedule: Q01DX005 (ip), vehicle: saline with Tween-80): 98 % of control and 161 % of control

CSC1SCC2C(=O)N(C)C(C(C)C)C(=O)OCC(NC(=O)c3cnc4ccccc4n3)C(=O)NC(C)C(=O)N(C)C1C(=O)N(C)C(C(C)C)C(=O)OCC(NC(=O)c1cnc3ccccc3n1)C(=O)NC(C)C(=O)N2C (stereo not drawn)
T/C (dose: 15.0 micrograms/kg/injection, schedule: Q01DX009 (ip), vehicle: saline with Tween-80): 112 % of control and 150 % of control
T/C (dose: 30.0 micrograms/kg/injection, schedule: Q01DX009 (ip), vehicle: saline with Tween-80): 111 % of control and 168 % of control
T/C (dose: 120.0 micrograms/kg/injection, schedule: Q01DX009 (ip), vehicle: saline with Tween-80): 123 % of control and 152 % of control

O=c1n[n+]([O-])ccn1C1OC(CO)C(O)C1O (stereo not drawn)
T/C (dose: 400.0 mg/kg/injection, schedule: Q01DX009 (ip), vehicle: saline): 90 % of control, 150 % of control, 165 % of control

COc1cccc2c1C(=O)c1c(O)c3c(c(O)c1C2=O)C[C@@](O)(C(C)=O)C[C@@H]3OC1CC(NCc2ccccc2)C(O)C(C)O1 (stereo partly drawn)
T/C [1]: 91 % of control and 187 % of control

O=c1[nH]c(=O)n(C2CC(O)C(CO)O2)cc1F (stereo not drawn)
T/C (dose: 74.0 mg/kg/injection, schedule: Q01DX009 (ip), vehicle: saline): 120 % of control and 176 % of control
T/C (dose: 300.0 mg/kg/injection, schedule: Q04DX003 (ip), vehicle: saline): 113 % of control and 175 % of control

Fc1ccccc1CSc1ncnc2nc[nH]c12
T/C (dose: 200.0 mg/kg/injection, schedule: Q04DX003 (ip), vehicle: saline with Tween-80): 114 % of control and 150 % of control
